In all, about 130,000 compounds went through this assay and about 1,200 (0.92%) were called active. The inconclusive results got no clear call from the source; some entries with a clear call stand among them for comparison. The call rests on the fitted dose curve; in most records, active means well fitted cell-killing curve with a large enough effect; inconclusive means small, poorly fitted or top-dose-only effect; inactive means no such curve, though single readings can be large or run the other way. Potencies beside an inconclusive call are fits to weak or partial responses and may not hold up.
experiment: qHTS Screen for Compounds that Selectively Target Cancer Cells with p53 Mutations: Cytotoxicity of p53ts Cells at the Permissive Temperature; conditions: H1299-p53A138V at 32C, ATP luminescence viability, 24 h; activity change, negative = cytotoxicity: at 46.1 µM (top of the series); further: nearly all actives have a fitted effect of over 55% in size;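 on activity change, negative = cytotoxicity: 0% = DMSO and -100% = full killing by reference compound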
Procedure, shortened: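 H1299-p53 A138V cells (temperature-sensitive p53) exposed 24 h to up to 46 uM compound at 32C, where p53 is wild-type in conformation. Viability read as ATP luminescence and normalised to DMSO and 100 uM tamoxifen. AC50 fitted with the Hill equation.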
Potency means the concentration at half of the fitted maximal effect; tags describe the fitted curve by direction and shape.

Row | Structure (SMILES) | Potency | activity change, negative = cytotoxicity
1 | COc1ccc(C)cc1Nc1nc(N)c2cc(OC)c(OC)cc2n1 | active: 20 µM | 
2 | COc1ccc(NC(=O)c2oc3ccccc3c2NC(=O)Cc2cccs2)c(OC)c1 | inconclusive: 15.8 µM [cytotoxic, single point] | 
3 | Cc1ccc(CSc2nc3cccnc3n2Cc2ccc(C(=O)NCCc3cccs3)cc2)cc1 | active: 5.01 µM | 
4 | COC(=O)c1cc2oc3ccccc3c2n1CC(=O)Nc1ccc(C)cc1C |  | inactive: 10.2%
5 | CC(C)=NOCc1ccc(-c2cn([C@@H]3COC[C@@H]3O)nn2)cc1 |  | inactive: -11.3% [at 9.22 µM]
6 | c1ccc(CNc2ccnc(-c3ccc4c(c3)OCO4)n2)cc1 | inconclusive: 25.1 µM [cytotoxic, single point] | 
7 | Cc1cc(C)c(NC(=O)Cn2c(=O)n(Cc3ccc(C(=O)NCc4ccco4)cc3)c(=O)c3sccc32)c(C)c1 | inconclusive: 31.6 µM [cytotoxic, single point] | 
8 | CCC(C)c1ccc(OCC(=O)Nc2ccc(-c3nc4ncccc4o3)cc2)cc1 (stereo unspecified) | inconclusive: 15.8 µM [cytotoxic, single point] | 
9 | COc1ccc(C=Nc2c(O)ccc3ccccc23)cc1OC |  | inactive: -7.85% [at 9.22 µM]
10 | Cc1nn(CCCC(=O)NCCc2ccc(Cl)cc2)c(=O)c2c1sc1ccccc12 | inconclusive: 12.6 µM [cytotoxic, partial curve] | 
11 | Cn1cccc1C(=O)N1CCC2(CCN(Cc3ccncc3)CC2)CC1 |  | inactive: -7.3%
12 | CCOc1ccc(Nc2nc3c(S(=O)(=O)c4cccc(Cl)c4)nnn3c3ccsc23)cc1 | inconclusive: 12.6 µM [cytotoxic, single point] | 
13 | O=C(CCS(=O)(=O)c1ccccc1)Nc1ccccc1-c1nc2ccccc2s1 | inconclusive: 0.0141 µM [cytotoxic, full curve, poor fit] | 
14 | O=C(c1ccco1)N1CCN(C(=O)C(Cc2ccccc2)NS(=O)(=O)c2cccs2)CC1 (stereo unspecified) |  | inactive: 6.03%
15 | COc1cccc(C(=O)N(Cc2cccnc2)c2nc3c(OC)ccc(C)c3s2)c1OC | inconclusive: 3.55 µM [cytotoxic, full curve, poor fit] | 
16 | CN(c1ccccc1)S(=O)(=O)c1nnc(NC(=O)C2CCCCC2)s1 | active: 7.94 µM | 
17 | COc1ccc(-c2noc(CC(=O)Nc3ccc(Br)cc3C)n2)cc1 |  | inactive: -5.83%
18 | C/C(=C\C(=O)c1ccc(C)cc1)Nc1cccc(O)c1 | inconclusive: 12.6 µM [cytotoxic, partial curve] | 
19 | c1ccc(Cc2nn3c(C4COc5ccccc5O4)nnc3s2)cc1 (stereo unspecified) |  | inactive: -9.43%
20 | COc1ccc(C)cc1NC(=O)C1COc2ccccc2C1 (stereo unspecified) |  | inactive: -7.41%
21 | CCC(=O)Nc1cnc(NC(=O)c2cccc(F)c2)cc1C | inconclusive: 12.6 µM [cytotoxic, partial curve] | 
22 | Nc1ncnc2c1nc(Cl)n2C1OC(CO)C(O)C1O (stereo unspecified) | inconclusive: 7.94 µM [cytotoxic, partial curve] | 
23 | COc1ccc2oc(C(=O)c3ccccc3)c(NC(=O)CN3CCN(C)CC3)c2c1 |  | inactive: -20%
24 | C(=C\c1ccccc1)/CN1CCN(c2ncnc3c2oc2ccccc23)CC1 | active: 10 µM | 

Row | Structure (SMILES) | Potency | activity change, negative = cytotoxicity
25 | Cc1ccc(C(C)C)c(OCC(=O)Nc2ccccc2N2CCN(C)CC2)c1 | inconclusive: 31.6 µM [cytotoxic, single point] | 
26 | CC(C)C(=O)Nc1cccc(C(=O)NCc2ccc(S(N)(=O)=O)cc2)c1 | inconclusive: 31.6 µM [cytotoxic, single point] | 
27 | O=C(CCCCCn1c(=O)c2sccc2n(CC(=O)Nc2cccc(Cl)c2)c1=O)NCc1ccc2c(c1)OCO2 | inconclusive: 22.4 µM [cytotoxic, single point] | 
28 | CNC1=C(Cl)C(=O)c2ccncc2C1=O | active: 1.58 µM | 
29 | COc1ccc(NC(=O)CCS(=O)(=O)c2nc(-c3cccs3)cc(C(F)(F)F)n2)cc1OC | inconclusive: 31.6 µM [cytotoxic, single point] | 
30 | Cc1ccc(NC(=O)NCCN2C(=O)C3C4C=CC(C4)C3C2=O)cc1 (stereo unspecified) | inconclusive: 10 µM [cytotoxic, partial curve] | 
31 | Cc1cc2nc(-c3ccc(SCC(=O)N4CCOCC4)nc3)[nH]c2cc1C | active: 6.31 µM | 
32 | Cn1cc(-c2nc3cnc(N4CCNCC4)nc3n(CCc3ccccc3)c2=O)c2ccccc21 | inconclusive: 31.6 µM [cytotoxic, single point] | 
33 | CCCCCCC/C=C\CCCCCCCCC(=O)O |  | inactive: -5.34%
34 | COc1ccc(C)cc1NC(=O)CN(Cc1nnc(-c2ccc(Cl)cc2)o1)C1CCCC1 |  | inactive: 25.2%
35 | CC1CCN(c2ncnc3c2cnn3-c2ccc(F)cc2)CC1 | inconclusive: 15.8 µM [cytotoxic, single point] | 
36 | CCOC(=O)C1C(=O)C=C(c2ccc(OC)cc2)CC1c1ccco1 (stereo unspecified) | inconclusive: 15.8 µM [cytotoxic, partial curve] | 
37 | O=C(COc1ccccc1)Nc1nc2ccccc2[nH]1 | inconclusive: 12.6 µM [cytotoxic, partial curve] | 
38 | Cc1ccc2c(c1)c(=O)c1ccccc1n2CCCC(=O)Nc1ccc(C)c(C)c1 |  | inactive: 2.24%
39 | CCOC(=O)CNC(=O)c1cnn2cccnc12 |  | inactive: -0.923%
40 | CC(/C=N/Nc1nc2ccccc2[nH]1)=C\c1ccccc1 | inconclusive: 10 µM [cytotoxic, partial curve] | 
41 | COc1ccc(-c2cc(C(=O)Nc3c(C)nn(Cc4ccccc4C)c3C)no2)cc1 |  | inactive: -1.58%
42 | CCc1cccc(NC(=O)Cn2nc(C)c3sc4ccccc4c3c2=O)c1 | inconclusive: 31.6 µM [cytotoxic, single point] | 
43 | O=C(O)c1ccccc1COc1ccccc1Cl | inconclusive: 12.6 µM [cytotoxic, partial curve] | 
44 | CCC(C)S(=O)(=O)c1oc(-c2ccc(F)cc2)nc1S(=O)(=O)c1ccc(F)cc1 (stereo unspecified) | active: 3.98 µM | 
45 | CCOC(=O)c1[nH]c2ccc(OC)cc2c1NC(=S)N1CCN(c2ccc(F)cc2)CC1 |  | inactive: -20.4%
46 | OC(CNCc1ccco1)Cn1c2ccccc2c2ccccc21 (stereo unspecified) | inconclusive: 31.6 µM [cytotoxic, single point] | 
47 | CCOc1ccc(C(=O)NCCc2csc(-c3cccnc3)n2)cc1 | inconclusive: 12.6 µM [cytotoxic, partial curve] | 
48 | Cc1ccnc(NC(=O)CCC2CCCCC2)c1 | active: 12.6 µM | 

Row | Structure (SMILES) | Potency | activity change, negative = cytotoxicity
49 | S=C(c1ccc(-c2cccc(Cl)c2)o1)N1CCOCC1 | inconclusive: 12.6 µM [cytotoxic, single point] | 
50 | CCN1CCc2nc(NC(=O)c3ccc4c(c3)OCCO4)sc2C1 | inconclusive: 15.8 µM [cytotoxic, single point] | 
51 | COc1ccc(OC)c(NC(=O)c2nnn(CC(=O)Nc3ccc(C(C)C)cc3)c2N)c1 | inconclusive: 35.5 µM [cytotoxic, single point] | 
52 | CC(C)c1c(O)ccc2c1CCC1[C@@](C)(C=O)CCC[C@@]21C (stereo partly specified) | inconclusive: 25.1 µM [cytotoxic, single point] | 
53 | CCN(CC)c1ccc(/C=N/Nc2cccc(C)c2)c(O)c1 | inconclusive: 0.178 µM [cytotoxic, full curve, poor fit] | 
54 | COc1ccc2ncc3c(-c4ccc(C)c(C)c4)nn(CC(=O)Nc4ccccc4)c3c2c1 | inconclusive: 12.6 µM [cytotoxic, partial curve] | 
55 | O=C(NCCc1ccccc1Cl)c1cc2ccccn2n1 | inconclusive: 12.6 µM [cytotoxic, single point] | 
56 | COc1ccccc1C(=O)NC(=O)Nc1ccc(-c2cc(C(F)(F)F)nn2-c2ccccc2)cc1 | inconclusive: 3.16 µM [cytotoxic, full curve, poor fit] | 
57 | CC(C)OC(=O)c1cc2ccccc2[nH]1 | inconclusive: 2 µM [cytotoxic, partial curve, poor fit] | 
58 | CCOC(=O)c1c(/N=C/c2ccc(C)cc2O)sc2c1CCC2 | inconclusive: 0.02 µM [cytotoxic, full curve, poor fit] | 
59 | CC(=O)Nc1ccc(NC(=O)c2ncoc2-c2ccco2)cc1 | inconclusive: 12.6 µM [cytotoxic, partial curve] | 
60 | O=C(O)CCN1C(=S)CSC1=S |  | inactive: 8.2% [at 9.22 µM]
61 | CCOc1ccc(-c2[nH]ncc2Oc2ccccc2OCC)c(O)c1 | inconclusive: 20 µM [cytotoxic, single point] | 
62 | CCOC(=O)CSc1cccc2cccnc12 | inconclusive: 20 µM [cytotoxic, partial curve, poor fit] | 
63 | Cc1cc(C)cc(NS(=O)(=O)c2ccc(-c3cc(C)no3)cc2)c1 |  | inactive: 14.7%
64 | COc1ccc(S(=O)(=O)NCCc2sc(-c3ccccc3)nc2C)cc1OC |  | inactive: -2.15%
65 | Cc1cc(Nc2ccc(C)c(Cl)c2)n2nc(-c3ccccc3)nc2n1 |  | inactive: 7.64%
66 | CCN(C(=O)Cc1cccs1)c1nnc(-c2cccnc2)s1 |  | inactive: 9.92%
67 | NC(=O)c1ccc[n+]([C@@H]2OC(COP(=O)([O-])OP(=O)(O)OCC3OC(n4cnc5c(N)ncnc54)C(OP(=O)(O)O)C3O)C(O)C2O)c1 (stereo partly specified) |  | inactive: 17%
68 | CCOC(=O)c1ccc(NC(=O)CC2Nc3cc(C)c(C)cc3NC2=O)cc1 (stereo unspecified) | inconclusive: 31.6 µM [cytotoxic, single point] | 
69 | O=C(c1ccc(C#Cc2ccccc2)o1)N1CCN(c2ccccn2)CC1 | inconclusive: 31.6 µM [cytotoxic, single point] | 
70 | O=C(Sc1nnc(-c2ccccc2)o1)N1c2ccccc2Sc2ccccc21 | inconclusive: 25.1 µM [cytotoxic, single point] | 
71 | COc1ccc(-c2cn3nc(SCC(=O)Nc4ccccc4F)ccc3n2)cc1 | inconclusive: 3.16 µM [cytotoxic, full curve] | 

From PubChem BioAssay AID924 (National Center for Advancing Translational Sciences (NCATS), 2007)
